Experimental data from PubChem BioAssay AID1240 (Sanford-Burnham Center for Chemical Genomics, 2008).
About 800 (1.6%) of roughly 50,000 compounds showed an effect of 50% or more. Some of the results follow.

Biological target: Bcl-2-like protein 10 (Homo sapiens) (UniProt Q9HD36)
Assay: TR3 peptide-Bcl-B binding displacers, biochemical primary FP assay, phenotype converters (AID 1240);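 further: 0% = Bcl-B with tracer peptide and DMSO and 100% = tracer peptide lacking Bcl-B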
Settings: GST-Bcl-B / FITC-TR3 peptide fluorescence polarization; stronger effect = higher value; compound at 3.75 mg/L

UniProt Q9HD36, sequence (Q9HD36 whole entry, looked up): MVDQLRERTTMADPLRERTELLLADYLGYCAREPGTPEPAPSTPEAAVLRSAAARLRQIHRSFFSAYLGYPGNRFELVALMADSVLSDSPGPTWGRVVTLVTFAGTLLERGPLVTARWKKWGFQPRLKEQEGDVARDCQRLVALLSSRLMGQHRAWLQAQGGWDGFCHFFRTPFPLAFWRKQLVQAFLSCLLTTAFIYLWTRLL

SMILES	displacement [%]
O=S1(=O)CC(S(=O)(=O)c2ccccc2)C(S(=O)(=O)c2ccccc2)C1 (stereo not given)	7.4
O=C1c2cc(S(=O)(=O)N(CCO)CCO)ccc2-c2ccc(S(=O)(=O)N(CCO)CCO)cc21	2.8
N#C/C(=C/c1ccc(Cl)cc1)C(=O)Nc1cccc(Br)c1	-9.8
O=P(c1ccccc1)(c1ccccc1)C1CCOCC1	11.4
O=C1CC(Cc2ccc(Br)cc2)C(=O)N1c1ccccc1 (stereo not given)	12.9
CC(=O)N(CC(C)(C)CC=C(C)C)C1CCCCC1	-39.9
Cc1nn(-c2ccccc2)c(C)c1CC(=O)N(c1ccccc1)c1ccccc1	17.9
CC(C)(C)/C(O)=C/c1nc2cc([N+](=O)[O-])ccc2[nH]c1=O	0.3
COc1ccc(C(=O)N/C(=C\c2ccc(-c3cccc([N+](=O)[O-])c3)o2)C(=O)NCc2ccco2)cc1	9.9
COc1ccc(C)cc1NC(=O)c1cc(C(=O)Nc2cc(C)ccc2OC)n(C)n1	7.3
O=C(c1c(Cl)cccc1Cl)N1CCN(c2ccc([N+](=O)[O-])cc2)CC1	16.3
COc1ccc(C2CC(C(F)(F)F)n3ncc(C(=O)Nc4ccccc4SC)c3N2)cc1 (stereo not given)	2.7
COc1ccc(C(NC(=O)c2ccco2)c2ccc(OC)c(OC)c2)cc1 (stereo not given)	-2.3
CCOc1ccc2sc(C=NCCc3ccccc3)c(O)c2c1	13.2
COc1nc(Nc2ccc(Cl)c(Cl)c2)nc(N(C)C)n1	-7.7
CCOc1ccccc1OCC(=O)NN	9.5
O=[N+]([O-])c1ccc(Cl)c(-c2nnc(-c3ccc(Br)o3)o2)c1	0
O=C(O)c1cc(NS(=O)(=O)c2ccc3c(c2)OCCO3)cc(C(=O)O)c1	-3.6
O=C(Nc1ccc(-c2nc3ccccc3[nH]2)cc1)c1cc2ccccc2o1	-14.2
COc1ccc(OC)c(-n2c(O)c(C=Nc3cccc(C)c3)c(=O)[nH]c2=O)c1	-2.6
N/C(=N\OC(=O)C(c1ccccc1)c1ccccc1)c1ccncc1	3.5
Cc1ccc(NC(=O)c2ccc(OCC(C)C)cc2)c(C)c1	5
COc1ccc(-n2c(O)c(C=Nc3cccc(Cl)c3)c(=O)[nH]c2=O)cc1	14.2
CCOc1ccc(NC2=C(Cl)C(=O)N(c3ccc(Br)cc3)C2=O)cc1	-4.8
C=CCCCC(=O)Nc1ccc(-c2ccc(NC(=O)CCCC=C)cc2)cc1	12.1
CC(C)Oc1ccccc1NC(=O)CSc1nc2ccccc2n1C	8.4
COc1ccc(C(=O)NCC2(c3ccc(OC)c(OC)c3)CCCC2)cc1	-17.4

SMILES	displacement [%]
CCOC(=O)CCc1c(C)nc2cc(-c3cccc(F)c3)[nH]n2c1=O	8.7
COc1cc(/C=N/Nc2ncc(C)c(=O)[nH]2)cc(OC)c1O	6.6
O=C(NCc1ccncc1)c1ccc(Cl)cc1	-3.5
COc1cc(/C=c2\sc3nc4ccccc4n3c2=O)ccc1OC(=O)c1ccc(F)cc1	13.5
CC(C)CNC(=O)CN(c1ccc(F)cc1)S(=O)(=O)c1ccccc1	0
O=C(Nc1ccc(I)cc1Cl)c1ccc(Cl)c(Cl)c1	-6.3
O=C(NCCN1CCNCC1)C(=O)Nc1ccc(F)cc1	12.1
O=c1oc2c(F)c(F)c(F)c(F)c2c2[nH]ncc12	3.4
O=C(/C=C/c1ccc(Cl)cc1)Nc1cccnc1	7.2
CC1CCN(c2ccc(/C=N/N=C3\NC(=O)CS3)cc2[N+](=O)[O-])CC1	7
CN1/C(=C\C=N\Nc2ccc([N+](=O)[O-])cc2)C(C)(C)c2ccccc21	-4.6
Cc1cccc(C(=O)Nc2sc3c(c2C(=O)N2CCN(C)CC2)CCCC3)c1	13.3
CC(C)c1ccc(CNC(=O)CSc2nc3ccccc3o2)cc1	1.8
Cc1ccc(CNS(=O)(=O)c2ccccc2[N+](=O)[O-])cc1	5.2
COc1ccc(NC(=O)c2ccc(CN3CCc4ccccc4C3)cc2)c(OC)c1	10.5
CCOC(=O)Cn1nc(-c2ccccc2)c2ccccc2c1=O	0.3
O=C1C2C3C=CC(C3)C2C(=O)N1c1ccc(-c2ccnc(-c3ccc(N4C(=O)C5C6C=CC(C6)C5C4=O)cc3)n2)cc1 (stereo not given)	4.4
COc1cc(Cl)cc(/C=N/NC(=O)/C(=C\c2ccc3c(c2)OCO3)NC(=O)c2ccccc2)c1O	6.1
Nc1ccc2nc(SCC(=O)Nc3ccc4nc(SCC(=O)NC5CC5)sc4c3)sc2c1	-1
C#CCOc1ccc(/C=C2\C(=O)NC(=O)N(c3cc(C)cc(C)c3)C2=O)cc1OC	-12.3
CCn1c2ccccc2c2cc(NC(=O)Cc3ccc(OC)c(OC)c3)ccc21	-5.2
CCCc1nc2ccccc2n1C(=O)/C=C\C(=O)O	-0.6
COc1ccc(NC(=O)c2cc3cc(OC)ccc3oc2=O)cc1	7.5
CCOc1ccc(NC(=S)NC(NC(=O)CC(C)C)C(Cl)(Cl)Cl)cc1 (stereo not given)	7.1
CC1(C(=O)n2nnc3ccccc32)CC2C=CC1C2 (stereo not given)	5.2
O=[N+]([O-])c1cc(-n2ncnc2-c2ccc(Cl)cc2)ccc1F	-7.7
O=C1NC(=Nc2ccc(Br)cc2)S/C1=C\c1ccc([N+](=O)[O-])cc1	0.3

SMILES	displacement [%]
COc1cccc(NC(=O)COc2ccc(Br)cc2C(C)(C)C)c1	3.9
CCOc1cc(/C=C2\C(=O)NC(=S)N(c3cccc(Br)c3)C2=O)ccc1O	3.4
CCCOc1ccc(N2C(=O)CC(N3CCC(C(N)=O)CC3)C2=O)cc1 (stereo not given)	4.8
C/C(=N/NC(=O)c1cc(-c2ccc3ccccc3c2)n[nH]1)c1ccc([N+](=O)[O-])cc1	-3.1
CCOC(=O)c1c(Nc2ccc(C)cc2)csc1C	-1.3
Nc1nnc(SCC(=O)Nc2cccc(C(F)(F)F)c2)s1	-11.2
CCOc1ccc(CN2CCN(C(=O)c3cccc(F)c3)CC2)cc1	1.7
C=CCn1c(SCC(=O)N2CCN(CCO)CC2)nc2sc(C)c(C)c2c1=O	2
COc1ccc(C(=O)Nc2ccccc2C(=O)Nc2nc3ccccc3n2C)cc1	11.9
COc1ccc(CC(=O)Nc2cccc(-c3nc4ncccc4o3)c2)cc1OC	0.2
N#C/C(=C\c1cccc(Cl)c1)c1nc2ccccc2[nH]1	-9.2
CN1CCN(c2nc3ccccn3c(=O)c2/C=C2\SC(=S)N(C)C2=O)CC1	-8.5
O=c1oc2cc(O)ccc2c2c1CCCC2	15
O=C(O)C12c3ccccc3C(C(=O)O)(c3ccccc31)c1ccccc12	-11
COc1ccc(N(CC(=O)O)S(=O)(=O)c2ccc(NC(C)=O)cc2)cc1	-4.6
O=C(c1nn2c(C(F)(F)F)cc(-c3cccs3)nc2c1Cl)N1CCOCC1	-7.7
CCOC(=O)c1c[nH]c2c(OCC)cccc2c1=O	5.8
Nc1cc(-c2ccccc2)nn1-c1ccccc1	4.8
CCOC(=O)c1cnn2c(C(F)(F)F)cc(-c3ccco3)nc12	11.4
Nc1ccc2nc(SCC(=O)Nc3cccc(C(F)(F)F)c3)sc2c1	-3.3
COc1cc(NC(=O)COc2cc(C)ccc2C(C)C)ccc1NC(=O)c1ccco1	3.1
O=C(NCc1cccnc1)c1cc2nc3c(c(C(F)(F)F)n2n1)CCc1ccccc1-3	11.2
CCC(=O)Nc1sc2c(c1C(=O)Nc1ccccc1Cl)CCC(C)C2 (stereo not given)	-5.4
COc1ccccc1-c1nnc(N)s1	-1
CC1=NN(c2ccc(S(N)(=O)=O)cc2)C(=O)/C1=C\c1ccc(-c2cc([N+](=O)[O-])ccc2C)o1	-6.5
S=c1[nH]nc(-c2cccc(Br)c2)n1-c1ccccc1	-14.7
COc1ccc(CCNc2cc(N3CCN(C(=O)c4cc(Cl)c(OC)c(Cl)c4)CC3)ccc2[N+](=O)[O-])cc1OC	12.7

SMILES	displacement [%]
CCOC(=O)C1(C(=O)OCC)C(c2ccccc2)CC(O)N1C(C)=O (stereo not given)	8.7
O=C(c1ccncc1)N1CCN(S(=O)(=O)c2ccccc2)CC1	-11
COc1cc(CNc2ccc3c(c2)CCC3)cc(OC)c1O	11
CCC1(C)Cc2c(sc3nc(SCC(=O)c4ccccc4)nc(N)c23)CO1 (stereo not given)	-7.7
CCOC(=O)c1ccc2nc(NC(=O)CSCC(=O)OCC(=O)c3ccc(Br)cc3)sc2c1	23.2
COc1cc(NC(=O)c2ccc(F)cc2)cc([N+](=O)[O-])c1	10
O=C(OCCOc1ccccc1)c1sc2ccccc2c1Cl	12.1
COc1ccc(/C=N/N2CCN(Cc3ccc(Cl)cc3)CC2)cc1OCc1ccccc1	-3.8
Cc1cccc(N2CCN(C(=O)c3cc(-c4ccc(Cl)cc4)nc4ccccc34)CC2)c1C	-9.7
COC(=O)c1cc(OC)cc([N+](=O)[O-])c1	6.3
Cc1ccccc1NC(=O)CC1CCCCC1	-3.4
CCOC(=O)C(=CNc1cc(OC)c(Cl)cc1OC)C(=O)OCC	2.9
CCOC(=O)COc1ccccc1/C=C1/C(=O)NN(c2ccccc2)C1=O	20.2
CCOC(=O)c1c(CC(C)C)csc1N1C(=O)c2cccc([N+](=O)[O-])c2C1=O	-8.8
CN=C(Nc1cccc(F)c1)SC1CC(=O)N(c2ccccc2F)C1=O (stereo not given)	-1.3
CCOc1ccc(N(CC(=O)Nc2cccc(Cl)c2)S(=O)(=O)c2ccc(SC)cc2)cc1	-1.1
COC(=O)C(C(=O)OC)C(C(C)C)C(C(=O)OC)C(=O)OC	13.4
Cc1cccc2c1nc1s/c(=C\c3ccc(-c4ccccc4F)o3)c(=O)n12	15.4
CC(C)(C)c1ccc(-c2cc(-c3ccccc3O)[nH]n2)cc1	0.3
CC(=O)c1cccc(NC(=O)CC2S/C(=N\N=C(/C)c3ccc(F)cc3)NC2=O)c1 (stereo not given)	-1.8
COc1ccc(OC)c(C2/C(=C(\O)c3ccc([N+](=O)[O-])cc3)C(=O)C(=O)N2CCCCCC(=O)O)c1 (stereo not given)	-4.5
Cc1cc(C)cc(N2C(=O)NC(=O)/C(=C\c3ccc(N(C)C)cc3)C2=O)c1	127
COC(=O)c1cnn2c1NC(c1ccccc1)CC2C(F)(F)F (stereo not given)	6.5
NC(=O)c1cnn2c1NC(c1cccs1)CC2C(F)(F)F (stereo not given)	3.9
